Results on 57 sequences are retold here after the supplement of paper PMC11417369.

± gives the standard deviation of the averaged measurements. This is one part of the list.

For the test, the system named is PfAP2-G AP2 domain (GST-tagged). Description: gcPBM binding intensity (ln(normalized median fluorescence intensity)); higher = stronger DNA binding. The procedure, abridged: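 Using an Agilent 4 × 180k array, primer-extended double-stranded 36-bp intergenic genomic probes and negative controls were exposed for 1 h to GST-fused P. falciparum DNA-binding domains expressed in E. coli. Binding was carried out in 1× PBS with 1% milk, 0.2 mg/ml BSA, 0.5% salmon testes DNA and 0.03% Triton X-100, and protein was detected with Alexa488 anti-GST antibody and a 488 nm scan. Binding intensity is the highest Masliner-normalised natural-log median intensity across replicate spots of either probe orientation.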
Regarding “AAAAAAAAAAAAAAAAAAAAAAAAAAATATATATAT [CACACA_negctrl_site271]”, the “gcPBM binding intensity (ln)” value turned out to be 11.2 ± 0.72.
For the sequence “AAGAAAAAAAAAAAAAAAAAAAAAAAAAAGGAAAAA [GTGCAC_negctrl_site174]”, the “gcPBM binding intensity (ln)” value was 9.48 ± 0.085.
The value for “TGCTACTTATAAATAGAACACACATAAGTGTATTTG [CACACA_site9253]” was 9.9 ± 0.014.
Then “AATAATAAAAAATATACACACATATATAAATAAATA [CACACA_site6164]”, with 9.7 ± 0.13.
The value for “ATAAAGCCATACAATACACACATTTGACATGTCCGT [CACACA_site7523]” was 10.23 ± 0.021; that for “GAAATTTTTAAATACAGTACACACATGGGTTTAAAT [XGTACX_site6124]” was 11.1 ± 0.62; that for “ATACTTCAATCTATTTGTACATATTTTTTAAAACCA [XGTACX_site2328]” was 11.1 ± 0.61.
Turning to “TAAGAAAAAAAATAATGTACATATGTATTTGAGAAA [XGTACX_site3569]”, the “gcPBM binding intensity (ln)” value came out at 11 ± 0.54.
Then “TATATATATATATATTGTACTAATTGTGCAAATGAG [XGTACX_site682]”, with 11.2 ± 0.81; and “GCGGGTTTATCTTTCGCACACCTTACATTTTAGAAT [CACACA_site2015]”, with 10.2 ± 0.11.
The value for “AGTTTTATGTAGTGTTGTACTTTATACAAATATATT [XGTACX_site614]” was 11.4 ± 0.6.
The value for “ATATCACATTCCACGGTACACACTAAAAGAAAAATC [CACACA_site3611]” was 11 ± 0.61; that for “TGTTTTTTATATTACTGTACATGTTTTGGAATAATA [XGTACX_site4716]” was 11.2 ± 0.84.
As for “ATAAATCAAAGGCACACACACAAAAAAAAAAAAAAA [CACACA_site160]”, the “gcPBM binding intensity (ln)” value was determined as 10.1 ± 0.49.
In the case of “TATTCCTTCTACAATTAAATAATTATAATAAATATA [GTGCAC_negctrl_site26]”, the “gcPBM binding intensity (ln)” value is 9.93 ± 0.36.
Then “GTATCATTAAATTATTGTACATATATATATATATAT [XGTACX_site8809]”, with 11 ± 0.64; and “ACATTTAAGTTTAGCTGTACATATTCATCATAATTA [XGTACX_site37]”, with 11 ± 0.59.
On to “TATTTTTGTATATATTTATTCTTATTTTACAGGAAA [TGCATGCA_negctrl_site472]”, for which the “gcPBM binding intensity (ln)” value stood at 9.905 ± 0.049.
In the case of “AACAAAAATAGAAACACACATACATTGGTTTTCTTT [CACACA_site2534]”, the “gcPBM binding intensity (ln)” value was found to be 9.74 ± 0.19.
The value for “TATATTTACATTGTAACACACATGAAATATATATAT [CACACA_site61]” was 9.93 ± 0.2.
Regarding “TTTTTTATTGTGATACGTATATTATTTTTTGATAAA [CACACA_negctrl_site1]”, the “gcPBM binding intensity (ln)” value stood at 10.6 ± 0.32.
The value for “TGTTGTAAATATGTTTGTACATAAATATATTATTTA [XGTACX_site5442]” was 11 ± 0.74; that for “GTTTTATTAAAAATGTGTACTTAATTATGAAAAAAA [XGTACX_site4689]” was 11.5 ± 0.97.
The value for “GTGTATTTTCTGCGCACACACATGCAAAAAGAAATA [CACACA_site1148]” was 10.9 ± 0.69; that for “TTAATTAATAGACACACACACATATAAATATAGATT [CACACA_site7143]” was 10.05 ± 0.049; that for “AAAAAAAAATAATATTGTACACACATAAATTCTTTG [XGTACX_site4315]” was 11.2 ± 0.6.
Then “TTTGTTTTTCATAGTGCACACATAACCAAAAATAGT [CACACA_site9030]”, with 10.9 ± 0.63; and “AAGAAAAAATATAATAATAATAAAATATATATAATA [TGCATGCA_negctrl_site475]”, with 9.26 ± 0.46; and “TAATCTATTTATATGTGTACCTATTTAGAAATGACA [XGTACX_site5709]”, with 11.3 ± 0.95.
“AAAGTAAATTTAAGCACACACAACGAACTTTTATAC [CACACA_site7008]”: the “gcPBM binding intensity (ln)” value came to 10.3 ± 0.11.
Then “TATTGTTTTGATTGATGTACATGTTTAAAATATATA [XGTACX_site8430]”, with 11.4 ± 0.88.
As to “TTTTTTTTTTTTTTTGCATGTTGAAAATAAAATTAT [TGCATGCA_site86]”, the “gcPBM binding intensity (ln)” value was found to be 9.81 ± 0.27.
Then AAATAGTTGTTAAAGGTGCACAATATGGATATAAGA, with 10.5 ± 0.41; and “TGAAAATATATAACGCGTACAAAAAGGAAATACAAT [XGTACX_site3534]”, with 11.6 ± 0.86.
In the case of “AAAATTTCAATAAATACACACATATAAATATAGATT [CACACA_site6893]”, the “gcPBM binding intensity (ln)” value came to 9.835 ± 0.078.
The value for “ATAAATATTTTGTAAGCATGCTTTTAAAAAAAGAAA [TGCATGCA_site572]” was 9.68 ± 0.071; that for “ATGTACTATAGGCACACACACTCACATATATATATA [CACACA_site5745]” was 11.2 ± 0.73.
The value for ATTTATTTTAAATAAGTGCAAAATGGTTATAAATAA was 10.5 ± 0.33; that for “ATAACATTCAAAAAATGTACAAACATATGAATAAAT [XGTACX_site7013]” was 10.8 ± 0.43; that for “ATATCATTTTATTTGTGTACTTAAAAAGTTGCAATG [XGTACX_site4099]” was 11.6 ± 0.96.
Take “AAAACTTTTTTAACAGAAAAATAGGGATACAATATA [CACACA_negctrl_site1708]”: the “gcPBM binding intensity (ln)” value was determined as 10.24 ± 0.099.
The value for “GGAAAAAAATAAAATAAGTATTTTACATACATATTG [TGCATGCA_negctrl_site10]” was 9.795 ± 0.007; that for ATATATTTTTATATAGTGCAAGTAATAAAAAGGAAT was 10.4 ± 0.32.
Then “TAAATACAAGAACTGACACACATACATACTACATTT [CACACA_site5561]”, with 10.2 ± 0.13; and “GGAATAACCAGACACACACACACATATAAATATGTA [CACACA_site7632]”, with 10.1 ± 0.2; and “AAAATAATAATAAATGCATGTGTTGTTTACTAAGAA [TGCATGCA_site528]”, with 9.96 ± 0.028.
Then “TTTTTAAAAAGTAACACACACTCTTATATATAATGA [CACACA_site3618]”, with 10.1 ± 0.33; and “AAAAAAAACAGACACACACACATAAATATAAATAAA [CACACA_site6214]”, with 9.955 ± 0.092.
As to “TATACATATATATATATATATAGATATATTCACGTG [XGTACX_negctrl_site265]”, the “gcPBM binding intensity (ln)” value was determined as 9.895 ± 0.021.
The value for “AATGTAGACACATATGTACACACATATATATGTATA [CACACA_site9014]” was 11.3 ± 0.87.
Then “AATATTCTATATGATACATGCATGATGGAATAAAAA [TGCATGCA_site980]”, with 10.1 ± 0.16.
The value for “TTTTGGTATACGTAATTATATAATATGTTAATCAAT [CACACA_negctrl_site645]” was 10.5 ± 0.36; that for “CCGCCATTGTACCATCCACACACATATATATATGTA [CACACA_site8866]” was 10.9 ± 0.45.
In the case of “TACCTATACAGACACACACACACACGCCCACAAAAA [CACACA_site6375]”, the “gcPBM binding intensity (ln)” value came out at 10.7 ± 0.45.
Then “TTTTTATATTTATATAAATAAAAAAATAACAAAATG [XGTACX_negctrl_site231]”, with 10.4 ± 0.5; and “CTCCATATTAGACACACACACAAATGAAAAAAATAT [CACACA_site7420]”, with 10.3 ± 0.4; and “TAAAATTAAACAAAAAAAAAGAAAAAAAAAAAAAAG [CACACA_negctrl_site1098]”, with 9.875 ± 0.007.
